Results: the supplement of paper PMC5499739
Whole data set: some 16,000 sequences, median “Z-score” near -0.37, cut for the highest 2% near 3.2. Some of the results follow.

tested on: RBM10 RRM1-ZnF (GST-tagged construct); test: RNAcompete 7-mer binding Z-score; higher = stronger binding preference
Description: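 RNAcompete: 20 pmol GST-tagged RBM10 RNA-binding constructs were incubated with a designed RNA pool of about 241,000 sequences up to 41 nt (1.5 nmol) on glutathione beads for 30 min at 4 °C and washed. Bound RNAs were identified by microarray hybridisation. Each RNA 7-mer is scored by a one-sided Z-score of its enrichment, computed over probes that contain the 7-mer within longer pool sequences.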

With AGCUGCG as the sequence, how does the “RNAcompete 7-mer binding Z-score” value read?
Its value is -0.0577.

With GCAAGCG as the sequence, how does the “RNAcompete 7-mer binding Z-score” value read?
The value was 0.621.

UGAGAUA was tested. Which “RNAcompete 7-mer binding Z-score” value did it give?
The value was 0.0853.

For UACUACA, which “RNAcompete 7-mer binding Z-score” value is on record?
Its value is -0.47.

With AGGGGCC as the sequence, how does the “RNAcompete 7-mer binding Z-score” value read?
The value was 0.722.

Which “RNAcompete 7-mer binding Z-score” value does the source give for UUUAAAU here?
Its value is -0.639.

Which “RNAcompete 7-mer binding Z-score” value does the source give for CUACACA here?
Its value is -0.535.

How did the “RNAcompete 7-mer binding Z-score” value turn out when UUCAGUA was run?
Its value is -0.402.

Which “RNAcompete 7-mer binding Z-score” value does the source give for CUUGGUG here?
The value was 0.904.

How did the “RNAcompete 7-mer binding Z-score” value turn out when AGGCAGU was run?
Its value is 0.316.

Which “RNAcompete 7-mer binding Z-score” value does the source give for UGAACUA here?
The value was -0.331.

How did the “RNAcompete 7-mer binding Z-score” value turn out when CUCGGGU was run?
The value was 0.768.

How did the “RNAcompete 7-mer binding Z-score” value turn out when UCAACAG was run?
The value was -0.288.

With UCAGUAA as the sequence, how does the “RNAcompete 7-mer binding Z-score” value read?
Its value is -0.461.

With GUAACAA as the sequence, how does the “RNAcompete 7-mer binding Z-score” value read?
The value was -0.0187.

For GCUUCUC, which “RNAcompete 7-mer binding Z-score” value is on record?
Its value is -0.678.

GAAAUUG was tested. Which “RNAcompete 7-mer binding Z-score” value did it give?
The value was 0.358.

AGCACCG was tested. Which “RNAcompete 7-mer binding Z-score” value did it give?
The value was -0.201.

For UAACAUC, which “RNAcompete 7-mer binding Z-score” value is on record?
The value was -0.584.

CAUUUAA was tested. Which “RNAcompete 7-mer binding Z-score” value did it give?
The value was -0.821.

CAUUAAU was tested. Which “RNAcompete 7-mer binding Z-score” value did it give?
The value was -0.668.

How did the “RNAcompete 7-mer binding Z-score” value turn out when CUUUAAU was run?
The value was -0.802.

How did the “RNAcompete 7-mer binding Z-score” value turn out when AGGUAAG was run?
Its value is 2.32.

With UACACCU as the sequence, how does the “RNAcompete 7-mer binding Z-score” value read?
The value was -0.607.

With GCAAAGC as the sequence, how does the “RNAcompete 7-mer binding Z-score” value read?
The value was -0.0902.

For UAGCCCG, which “RNAcompete 7-mer binding Z-score” value is on record?
Its value is -0.334.

How did the “RNAcompete 7-mer binding Z-score” value turn out when GGCAGAU was run?
The value was 0.794.

For UAUAUUG, which “RNAcompete 7-mer binding Z-score” value is on record?
The value was -0.308.

For UCAUGCA, which “RNAcompete 7-mer binding Z-score” value is on record?
Its value is -0.646.

For AUGGGGC, which “RNAcompete 7-mer binding Z-score” value is on record?
The value was 2.81.

Which “RNAcompete 7-mer binding Z-score” value does the source give for CUGCUUG here?
Its value is -0.727.

AUCCCGG was tested. Which “RNAcompete 7-mer binding Z-score” value did it give?
Its value is -0.513.

Which “RNAcompete 7-mer binding Z-score” value does the source give for GAGGAAG here?
The value was 3.26.

Which “RNAcompete 7-mer binding Z-score” value does the source give for GAGCCGG here?
Its value is 0.465.

How did the “RNAcompete 7-mer binding Z-score” value turn out when CUCGUUU was run?
Its value is -0.896.

AUUAAGC was tested. Which “RNAcompete 7-mer binding Z-score” value did it give?
The value was -0.636.

Which “RNAcompete 7-mer binding Z-score” value does the source give for CGGUGUC here?
The value was 0.365.

For GUCAAGA, which “RNAcompete 7-mer binding Z-score” value is on record?
Its value is -0.0187.

For UUUGUAA, which “RNAcompete 7-mer binding Z-score” value is on record?
Its value is -0.496.

For GAUGACA, which “RNAcompete 7-mer binding Z-score” value is on record?
The value was 0.365.

UACCUUC was tested. Which “RNAcompete 7-mer binding Z-score” value did it give?
The value was -0.896.

Which “RNAcompete 7-mer binding Z-score” value does the source give for GCGGACC here?
Its value is 0.381.

GUAGUCG was tested. Which “RNAcompete 7-mer binding Z-score” value did it give?
The value was 0.352.

GGCGGCU was tested. Which “RNAcompete 7-mer binding Z-score” value did it give?
The value was 0.465.

GCGCAAU was tested. Which “RNAcompete 7-mer binding Z-score” value did it give?
Its value is -0.47.

How did the “RNAcompete 7-mer binding Z-score” value turn out when AAUUGGU was run?
Its value is 1.28.

UGGUAGG was tested. Which “RNAcompete 7-mer binding Z-score” value did it give?
Its value is 2.98.

For GUAACGG, which “RNAcompete 7-mer binding Z-score” value is on record?
The value was 1.68.

With CCUGUAU as the sequence, how does the “RNAcompete 7-mer binding Z-score” value read?
Its value is -0.85.

Which “RNAcompete 7-mer binding Z-score” value does the source give for ACUAUUU here?
Its value is -0.938.

For CCAGCAG, which “RNAcompete 7-mer binding Z-score” value is on record?
Its value is -0.275.

For UAUGGGG, which “RNAcompete 7-mer binding Z-score” value is on record?
Its value is 3.4.

AACACAG was tested. Which “RNAcompete 7-mer binding Z-score” value did it give?
Its value is 0.0528.

Which “RNAcompete 7-mer binding Z-score” value does the source give for GCCGAUG here?
The value was -0.123.

Which “RNAcompete 7-mer binding Z-score” value does the source give for UUAGGAG here?
The value was 2.09.

For UGUUUAA, which “RNAcompete 7-mer binding Z-score” value is on record?
The value was -0.444.

AAUAUGG was tested. Which “RNAcompete 7-mer binding Z-score” value did it give?
Its value is 1.09.

Which “RNAcompete 7-mer binding Z-score” value does the source give for ACGAACU here?
Its value is -0.672.

For ACGCCUC, which “RNAcompete 7-mer binding Z-score” value is on record?
The value was -0.678.

UAGCGUA was tested. Which “RNAcompete 7-mer binding Z-score” value did it give?
The value was -0.207.

Which “RNAcompete 7-mer binding Z-score” value does the source give for UUGGUGG here?
The value was 2.48.

How did the “RNAcompete 7-mer binding Z-score” value turn out when GUUGCUG was run?
The value was 0.196.

With AAAAAUA as the sequence, how does the “RNAcompete 7-mer binding Z-score” value read?
The value was -0.412.

Which “RNAcompete 7-mer binding Z-score” value does the source give for GUAGUGA here?
Its value is 0.946.

Which “RNAcompete 7-mer binding Z-score” value does the source give for GACAUAG here?
Its value is 0.53.

CCGAUUC was tested. Which “RNAcompete 7-mer binding Z-score” value did it give?
Its value is -0.815.

UAGACGU was tested. Which “RNAcompete 7-mer binding Z-score” value did it give?
Its value is -0.178.

With CAGAGUA as the sequence, how does the “RNAcompete 7-mer binding Z-score” value read?
The value was 0.0983.

How did the “RNAcompete 7-mer binding Z-score” value turn out when UUACUAC was run?
The value was -0.707.

Which “RNAcompete 7-mer binding Z-score” value does the source give for AAGAACU here?
Its value is -0.308.

With ACGAAGA as the sequence, how does the “RNAcompete 7-mer binding Z-score” value read?
The value was -0.344.

Which “RNAcompete 7-mer binding Z-score” value does the source give for CGGCUGA here?
The value was 0.196.

For CGAAUCA, which “RNAcompete 7-mer binding Z-score” value is on record?
The value was -0.305.

Which “RNAcompete 7-mer binding Z-score” value does the source give for UGAGUAA here?
Its value is 0.287.

With AUCAUUG as the sequence, how does the “RNAcompete 7-mer binding Z-score” value read?
The value was -0.532.

UCCGGUU was tested. Which “RNAcompete 7-mer binding Z-score” value did it give?
The value was -0.0577.

GACACCG was tested. Which “RNAcompete 7-mer binding Z-score” value did it give?
The value was -0.451.

How did the “RNAcompete 7-mer binding Z-score” value turn out when AGAAGAA was run?
Its value is 1.

How did the “RNAcompete 7-mer binding Z-score” value turn out when AGACAAA was run?
Its value is -0.165.

For CUGAUCA, which “RNAcompete 7-mer binding Z-score” value is on record?
Its value is -0.448.

CCUGACU was tested. Which “RNAcompete 7-mer binding Z-score” value did it give?
The value was -0.698.

GAAGUCG was tested. Which “RNAcompete 7-mer binding Z-score” value did it give?
Its value is 0.43.

UCUCCUU was tested. Which “RNAcompete 7-mer binding Z-score” value did it give?
Its value is -0.655.

How did the “RNAcompete 7-mer binding Z-score” value turn out when UAGUCUU was run?
The value was -0.847.

With ACAGGGU as the sequence, how does the “RNAcompete 7-mer binding Z-score” value read?
Its value is 2.94.

CCUCGCC was tested. Which “RNAcompete 7-mer binding Z-score” value did it give?
Its value is -0.441.

How did the “RNAcompete 7-mer binding Z-score” value turn out when GUUCCCG was run?
The value was -0.555.

For CUCACCA, which “RNAcompete 7-mer binding Z-score” value is on record?
Its value is -0.665.

With CAAGCUU as the sequence, how does the “RNAcompete 7-mer binding Z-score” value read?
Its value is -0.967.

How did the “RNAcompete 7-mer binding Z-score” value turn out when CGGGAGU was run?
Its value is 1.67.

For GAGAGAU, which “RNAcompete 7-mer binding Z-score” value is on record?
Its value is 0.69.

AUGGUUU was tested. Which “RNAcompete 7-mer binding Z-score” value did it give?
The value was 1.85.

For GUAAGCA, which “RNAcompete 7-mer binding Z-score” value is on record?
The value was 0.322.

With CUGCCAC as the sequence, how does the “RNAcompete 7-mer binding Z-score” value read?
Its value is -0.688.

UACGGAU was tested. Which “RNAcompete 7-mer binding Z-score” value did it give?
Its value is 0.784.

AGAAUUG was tested. Which “RNAcompete 7-mer binding Z-score” value did it give?
Its value is 0.365.

For CUAUAAA, which “RNAcompete 7-mer binding Z-score” value is on record?
Its value is -0.681.

Which “RNAcompete 7-mer binding Z-score” value does the source give for UGCAUUU here?
The value was -0.828.

For AUCUAGA, which “RNAcompete 7-mer binding Z-score” value is on record?
The value was -0.548.

UCAUGGU was tested. Which “RNAcompete 7-mer binding Z-score” value did it give?
The value was 0.0528.
